The values below come from the supplement of paper PMC11417369.

Some of the results follow.

In the assay the test system is PfAP2-HC AP2 domain (GST-tagged). As to the kind of experiment: gcPBM binding intensity (ln(normalized median fluorescence intensity)); higher = stronger DNA binding. The procedure, abridged:
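The binding buffer was 1× PBS containing 1% milk, 0.2 mg/ml BSA, 0.5% salmon testes DNA and 0.03% Triton X-100. In it, GST-tagged P. falciparum DNA-binding domains expressed in E. coli were applied for 1 h to an Agilent 4 × 180k array of primer-extended double-stranded 36-bp intergenic genomic probes plus negative controls. Binding intensity, read with Alexa488 anti-GST antibody and a 488 nm scan, is the highest Masliner-normalised natural-log median intensity across replicate spots of either probe orientation.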
With “TATAAATTAATGACATGTACATAAAAGTATAGATGT [XGTACX_site6534]”, the “gcPBM binding intensity (ln)” value was found to be 9.95.
With “TAAAAAATATAAATGACACACACTTAAAAACAAAGA [CACACA_site671]”, the “gcPBM binding intensity (ln)” value was found to be 10.5.
Take “AATACAATATAGTGAAAAATAATTAAATACAATAAG [XGTACX_negctrl_site161]”: the “gcPBM binding intensity (ln)” value amounted to 9.91.
As for “CGTAAACAATTATGATGTACATAAAATATATATATA [XGTACX_site2705]”, the figure is 9.9.
As to “TCTATTCATTTTGAAGGTACACATTTCTTTATAATA [XGTACX_site6218]”, the “gcPBM binding intensity (ln)” value came out at 9.57.
As for “GTATTAGATAAATACACACACAAGCATATATTTTTA [CACACA_site3431]”, the figure is 10.3; as for “AATATATCATTATATAAACACACAATATGTTTTTTA [CACACA_site9260]”, 9.64.
Consider “AAAAATATATATATATATATATATATAAGGAATATA [XGTACX_negctrl_site450]”, for which the “gcPBM binding intensity (ln)” value turned out to be 9.91.
As for “AATAAATATATAAATACACACAAACATACATATATA [CACACA_site9340]”, the “gcPBM binding intensity (ln)” value came out at 10.2.
As for “TTAAATTTTTTTTTGTGTACGAAAAACAGAAAAAAT [XGTACX_site8625]”, the “gcPBM binding intensity (ln)” value was found to be 9.22.
Then “TATGTGTATGGGAATGCATGTAAATATGTACATATA [TGCATGCA_site737]”, with 9.96; and “ATATATATATACATATGTACATATAAAATAATTTTG [XGTACX_site3731]”, with 9.7; and “TTGTTCCACAAAAATTTAGTCAAAAAAAAATAAAAA [TGCATGCA_negctrl_site546]”, with 9.37.
Take “ACAAAAAAAAAAATAACACACATGGGGGTGTATAAA [CACACA_site3797]”: the “gcPBM binding intensity (ln)” value was determined as 9.87.
As for “AATGAATAACAATACTATATGATTTTTAATACATTA [XGTACX_negctrl_site42]”, the “gcPBM binding intensity (ln)” value was 9.56.
For the sequence GTATATTATTTACGTTTGCACTTCATTTTATAGTAA, the “gcPBM binding intensity (ln)” value was 9.84.
Turning to “TATTAATTGTGGCACCTTGTATGTTTACAATGACAT [CACACA_negctrl_site1383]”, the “gcPBM binding intensity (ln)” value turned out to be 9.81.
For the sequence “AATGGATGAATGAATGTATGAATGAATGTATGAATG [CACACA_negctrl_site91]”, the “gcPBM binding intensity (ln)” value was 9.6.
In the case of “TTCTTCAAAAAAAATTGTACACATCTCTCAAATGTT [XGTACX_site2952]”, the “gcPBM binding intensity (ln)” value was 9.6.
As to “TGTATGTATTAATGCGCACACAAAAAATAACAATAT [CACACA_site1848]”, the “gcPBM binding intensity (ln)” value turned out to be 10.5.
Then “AAAAAAAAAAAAAAGAGTACACAGACGTTCAAAGGT [XGTACX_site7566]”, with 10.1; and “ACAGAGCTTTAAATACGTACATAATATATATTAAAT [XGTACX_site8221]”, with 9.58; and “ATATAGATATATAGTAGTACTTGTTATATAAGATAA [XGTACX_site6336]”, with 9.77.
As for “TATTGATTTAGAAACACACACTCGAAGATGTTTAAC [CACACA_site1129]”, the “gcPBM binding intensity (ln)” value stood at 9.83.
Turning to “ATATATATATATAAATGTACATTGTGTGTTGTAAGA [XGTACX_site2434]”, the “gcPBM binding intensity (ln)” value is 9.93.
On to “ATAAAAAAAAAATAATGTACTTATATATATATATAT [XGTACX_site8282]”, for which the “gcPBM binding intensity (ln)” value was 9.55.
Then “TTAAAAATGTTGGAAAGTACATATTTTTTAAAAGTA [XGTACX_site802]”, with 9.39; and “CGCCTATAAGCTTAGACACACAAATAAATAAATATA [CACACA_site1264]”, with 9.48; and “TACCTAATTCGGTCCCGTACAAGTTAGTTTCAATTC [XGTACX_site2703]”, with 9.44.
With “TATTGGGGGTATAAACACAGTAAGTAAATAAATAAA [CACACA_negctrl_site1680]”, the “gcPBM binding intensity (ln)” value was determined as 9.45.
As for “ATGTATGTGTAACATAGTACTTTTTAAAAGGATATT [XGTACX_site5328]”, the figure is 9.8.
In the case of “TATAGATACATATACACACACACACCCACATATATA [CACACA_site3436]”, the “gcPBM binding intensity (ln)” value came out at 10.8.
For the sequence “AATATCATATAAAAATGTACAAATTCTAAAACACGA [XGTACX_site1442]”, the “gcPBM binding intensity (ln)” value was found to be 9.77.
As for “TATTTTTTATAATAATGTACATATATATATATAATA [XGTACX_site2329]”, the “gcPBM binding intensity (ln)” value was determined as 9.45.
As for “GTATTCATGCTAAAGGTGCAATAATTTTTATAATAA [GTGCAC_site9603]”, the figure is 9.46.
Take “AAGATAAAATTATGTAGTACAAAAAAAAATAAAAAA [XGTACX_site139]”: the “gcPBM binding intensity (ln)” value was 9.88.
With “ATCAAACCTTTTAAATGTACATTCGGAGTAAAAAAA [XGTACX_site282]”, the “gcPBM binding intensity (ln)” value turned out to be 9.56.
Then “AAAAGTTTTATTTAAATGAATTAATCTTTACTATAT [CACACA_negctrl_site282]”, with 9.52; and “TGATTTCCAGGTTATTGTACAAAATTAATTTTCGAA [XGTACX_site2491]”, with 9.47.
Take “TATTAAACAAATTATGCAAAAATAAATCAATATGTT [CACACA_negctrl_site171]”: the “gcPBM binding intensity (ln)” value is 9.61.
Take “CAATTTATAAAGAAAACACACATATACATATATACA [CACACA_site1260]”: the “gcPBM binding intensity (ln)” value was 9.8.
“ATTATTTTATAATTCACACATAAATAAAAAAAAAAT [CACACA_site5290]”: the “gcPBM binding intensity (ln)” value turned out to be 9.55.
With “TTAGGAAGCTCACAAAATAAAGTGAAAAGAAGAAAA [XGTACX_negctrl_site572]”, the “gcPBM binding intensity (ln)” value worked out at 9.55.
Take “TAAATATTATTTCATAGTACTTTTATTATTGATATA [XGTACX_site5566]”: the “gcPBM binding intensity (ln)” value was 9.59.
Then “TTTTGTAGTTTATAAATAAAAGAGAATATGGTGCTT [CACACA_negctrl_site413]”, with 9.63; and “TAAATAAATATATATACACACATATATATATATATA [CACACA_site598]”, with 9.6; and “ATATATATAAAACACACACACAAAAAAAATAAAGAC [CACACA_site117]”, with 11.2.
Consider “AGGAAATGTTTATATACATGCATAATTAAATATAAT [TGCATGCA_site672]”, for which the “gcPBM binding intensity (ln)” value turned out to be 9.63.
Regarding “ATAAAATGCGCAAACACACACAAAAAAAAGATATAT [CACACA_site6875]”, the “gcPBM binding intensity (ln)” value was 10.2.
Take “TTTTTAATTAATCTTATAAATATTTATAAATATATA [CACACA_negctrl_site1485]”: the “gcPBM binding intensity (ln)” value was 9.44.
CATATTGTCATTCTGGTGCACTTTTTTTTTTTTTTT: the “gcPBM binding intensity (ln)” value is 9.84.
Consider “ATATAATATAACAATACGCACACGTATACAAAAAAA [CACACA_site3151]”, for which the “gcPBM binding intensity (ln)” value turned out to be 9.91.
As to “TTTTCATGTTTTTTTCTTTATTTTTTTTTTTTTTTT [GTGCAC_negctrl_site511]”, the “gcPBM binding intensity (ln)” value was 9.45.
“TTTTTTTATTATTATTGTACAAGGCCTTAGGTGATT [XGTACX_site5050]”: the “gcPBM binding intensity (ln)” value came to 9.54.
Consider “TACTTAATTATAAGGACATGCACAAAAGGAATTATT [TGCATGCA_site468]”, for which the “gcPBM binding intensity (ln)” value came to 9.72.
Regarding “TTTTTTTTTTTTTTTTTTTTCTTCATTTAATTTATA [GTGCAC_negctrl_site17]”, the “gcPBM binding intensity (ln)” value was found to be 8.67.
